Experimental data as given in the supplement of paper PMC10126150.
Values marked as one replicate rest on one cluster of the flow cell; about a third of the high ones do not repeat.

Test system: ATP
Assay: switch fluorescence ratio, 500 uM ATP over buffer (Cy3 cluster intensity, sum of 5 cycles each) (fold (ratio)); higher = stronger signal-on switching upon ATP binding; sequences stand for … in TCGTCGGCAGCGTCAGATGTGTATAAGAGACAGTTTTTTTTTTTTTTTTTTTTTTTTT…TC
Conditions: aptamer strand: ATP DNA aptamer (quencher-CACCTGGGGGAGTATTGCGGAGGAAGG + anchor), 100 nM annealed; ATP concentration: 500 uM; one replicate
Procedure, shortened: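 Exposure to 500 uM ATP lasted 15 min at 22 °C before imaging, and a selection-buffer image was taken beforehand, for Cy3-labelled switching-strand clusters on a modified Illumina MiSeq flow-cell annealed to 100 nM quencher-labelled ATP aptamer. Five buffer/ATP cycles were run with NaOH stripping and re-annealing between them. The fluorescence ratio per cluster is summed target-cycle over summed buffer-cycle Cy3 intensity, averaged per switch-domain sequence. Clusters outside 100-1000 RFU were excluded.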

## GTGGTAGCCT
  switch fluorescence ratio: 1.03

## GTCCGGATGC
  switch fluorescence ratio: 1.39

## TTTGCCCGGC
  switch fluorescence ratio: 1.1

## CTGAATGAAA
  switch fluorescence ratio: 1.02

## CCAACCTCTG
  switch fluorescence ratio: 1.04

## ACTTACTCAC
  switch fluorescence ratio: 1.48

## TCTCTGCCGA
  switch fluorescence ratio: 1.28

## GCTCATACGG
  switch fluorescence ratio: 1.07

## CCCAGTCGTA
  switch fluorescence ratio: 1

## TGATTAAAGA
  switch fluorescence ratio: 0.977

## GTGGTGACAC
  switch fluorescence ratio: 0.957

## CCGTAGGTCT
  switch fluorescence ratio: 1.07

## TGCCCGCGGT
  switch fluorescence ratio: 1.1

## CGTGAGGTCT
  switch fluorescence ratio: 1.09

## GGGCAGTCCT
  switch fluorescence ratio: 1.01

## TCTTAGGTAT
  switch fluorescence ratio: 1

## GGCGAAACAG
  switch fluorescence ratio: 1.04

## GGGCGAATCT
  switch fluorescence ratio: 0.997

## CTCTACGTCT
  switch fluorescence ratio: 0.964

## GCAGAAGGCG
  switch fluorescence ratio: 0.978

## CATCCTAAGC
  switch fluorescence ratio: 1.03

## AATCATCGGA
  switch fluorescence ratio: 0.993

## CTCTCATTGG
  switch fluorescence ratio: 1.01

## GAGGTATCTT
  switch fluorescence ratio: 0.994

## TTTAACGAGG
  switch fluorescence ratio: 1.06

## CAGACTTGGA
  switch fluorescence ratio: 1.06

## GGGAAGGCGA
  switch fluorescence ratio: 1.01

## AATTTCCGCA
  switch fluorescence ratio: 1.56

## CTGGGCATGT
  switch fluorescence ratio: 1.07

## CAGAGCTCGG
  switch fluorescence ratio: 1.02

## TCGGCCGCCG
  switch fluorescence ratio: 1.02

## ATCGATTCTG
  switch fluorescence ratio: 0.987

## CGCCCATGGC
  switch fluorescence ratio: 1.04

## ACAAGATCCT
  switch fluorescence ratio: 1.01

## TATAATCTCG
  switch fluorescence ratio: 0.998

## TGCCTTTATG
  switch fluorescence ratio: 0.987

## ATCCCTCGTC
  switch fluorescence ratio: 0.948

## GGAGTATGTC
  switch fluorescence ratio: 0.905

## CTTCACATCA
  switch fluorescence ratio: 1.05

## GGTAATATGC
  switch fluorescence ratio: 1.01

## TCAAGCTGTT
  switch fluorescence ratio: 0.965

## TTAGCCTAGG
  switch fluorescence ratio: 0.984

## TGTTTTAGCG
  switch fluorescence ratio: 0.995

## CATAACCGCC
  switch fluorescence ratio: 1.63

## GATGAAATCG
  switch fluorescence ratio: 1.03

## GACGTCTAGG
  switch fluorescence ratio: 1.02

## TTGCACGAGG
  switch fluorescence ratio: 1.02

## TGTACCAAT
  switch fluorescence ratio: 0.992

## TCGAGCCTGG
  switch fluorescence ratio: 1.01

## ATCGATCCC
  switch fluorescence ratio: 0.984

## CGGACCAGGG
  switch fluorescence ratio: 0.985

## TCAGCTTGCA
  switch fluorescence ratio: 1.11

## CTAGAATGTA
  switch fluorescence ratio: 0.997

## AATTTCGTCA
  switch fluorescence ratio: 1.03

## TGTTGTGG
  switch fluorescence ratio: 0.98

## TTATGTTGGC
  switch fluorescence ratio: 0.965

## CAGGCAGGAG
  switch fluorescence ratio: 1.02

## GTGTTGTACT
  switch fluorescence ratio: 0.993

## GATGGGTGAA
  switch fluorescence ratio: 0.973

## ATCTGACAGT
  switch fluorescence ratio: 1.03

## CGAGCGTCTG
  switch fluorescence ratio: 0.951

## AAACAGAGGG
  switch fluorescence ratio: 1.02

## AATATATCTA
  switch fluorescence ratio: 0.999

## ATCGGGCTTA
  switch fluorescence ratio: 1.01

## TTGAAAATTG
  switch fluorescence ratio: 0.999

## CCGGCGTTGG
  switch fluorescence ratio: 1.08

## GACGAAACG
  switch fluorescence ratio: 1.09

## GGGTCAAGAT
  switch fluorescence ratio: 0.98

## ACATCTATAC
  switch fluorescence ratio: 1.24

## TGTAAAGTGG
  switch fluorescence ratio: 1.04

## CCACATCTGC
  switch fluorescence ratio: 1.07

## CTAAGTTGCC
  switch fluorescence ratio: 0.928

## TACGGCAGGA
  switch fluorescence ratio: 1.08

## CATTCAATCG
  switch fluorescence ratio: 1.08

## GCGGCGATTA
  switch fluorescence ratio: 1.03

## CTATGGCAGG
  switch fluorescence ratio: 1.07

## CATGTTATTA
  switch fluorescence ratio: 1.01

## TCTACATACA
  switch fluorescence ratio: 1.37

## GATCACAAGA
  switch fluorescence ratio: 1.05

## CGAATTCAAA
  switch fluorescence ratio: 0.983

## ACGTTAGCAC
  switch fluorescence ratio: 1.02

## TCGGTCGGCG
  switch fluorescence ratio: 0.967

## TATGCACTTG
  switch fluorescence ratio: 1.08

## CTATATGGTT
  switch fluorescence ratio: 0.989

## GCGAGTGTCA
  switch fluorescence ratio: 1.03

## GGTCCATCTT
  switch fluorescence ratio: 1.02

## AAGCATAAGT
  switch fluorescence ratio: 1.02

## GCCAGCGCT
  switch fluorescence ratio: 0.991

## GTTGCGAATG
  switch fluorescence ratio: 0.973

## CATCTTCTCT
  switch fluorescence ratio: 0.989

## AGGCCTTTAC
  switch fluorescence ratio: 1.06

## CGCTGGGTCT
  switch fluorescence ratio: 0.947

## TGGTTAACTC
  switch fluorescence ratio: 0.963

## AGTTCGTGC
  switch fluorescence ratio: 1.01

## TAATTATTAG
  switch fluorescence ratio: 1.07

## ATGGGAGCTA
  switch fluorescence ratio: 0.989

## CTTAGGTTTT
  switch fluorescence ratio: 1.01

## AGCTTTTAAA
  switch fluorescence ratio: 0.964

## CGCCACTGTT
  switch fluorescence ratio: 1.09

## TGCTAGATTT
  switch fluorescence ratio: 1.01

## GGCGCGCAGT
  switch fluorescence ratio: 1

## TTCCGCGCA
  switch fluorescence ratio: 3.74

## GGACATCAGT
  switch fluorescence ratio: 0.972

## ATAATAAGAA
  switch fluorescence ratio: 0.993

## ATTCGATACC
  switch fluorescence ratio: 1.02

## GACAACGATT
  switch fluorescence ratio: 1.03

## GGGTTAGTCG
  switch fluorescence ratio: 1.2

## CTAAAAGAG
  switch fluorescence ratio: 1.4

## CATGTCGCGG
  switch fluorescence ratio: 1.05

## GTGACTAGGG
  switch fluorescence ratio: 0.967

## GATTCAAATT
  switch fluorescence ratio: 1.01

## CCTTCATACG
  switch fluorescence ratio: 2.38

## TTCAGGATCG
  switch fluorescence ratio: 0.999

## TTATGCATT
  switch fluorescence ratio: 1

## GTCATTATCC
  switch fluorescence ratio: 1.03

## AGCATGGGTC
  switch fluorescence ratio: 1.05

## TCTAAGGTGT
  switch fluorescence ratio: 1.29

## ACTCGCGCGA
  switch fluorescence ratio: 1.15

## ATATGGCGG
  switch fluorescence ratio: 0.965

## TGGCATACTT
  switch fluorescence ratio: 1.63

## TGTTAGAAGT
  switch fluorescence ratio: 0.994

## CGGGTACACA
  switch fluorescence ratio: 0.995

## GTAAAAGGCA
  switch fluorescence ratio: 1.01

## CGAGGACTTT
  switch fluorescence ratio: 0.953

## GCGTTAATT
  switch fluorescence ratio: 1.02

## AACTGTGATC
  switch fluorescence ratio: 1

## CAGGTCCTCT
  switch fluorescence ratio: 1.01

## AACAGGCGGA
  switch fluorescence ratio: 1

## TATGTTGAA
  switch fluorescence ratio: 0.972

## TCGGTTATGG
  switch fluorescence ratio: 0.983

## CGATGGGCT
  switch fluorescence ratio: 1.01

## ACCCTCTGTA
  switch fluorescence ratio: 1.04

## CAATGAGGCC
  switch fluorescence ratio: 0.95

## CACTACCTGT
  switch fluorescence ratio: 1.05

## TCGGTATCG
  switch fluorescence ratio: 0.98

## AGTTAGTAGA
  switch fluorescence ratio: 0.998

## GAATAGTT
  switch fluorescence ratio: 0.968

## TATAGTGTTT
  switch fluorescence ratio: 1.02

## ACCATTTCCA
  switch fluorescence ratio: 0.997

## GGGTTGTATC
  switch fluorescence ratio: 0.98

## GGCTTACGCG
  switch fluorescence ratio: 1.03

## TGGAACACGC
  switch fluorescence ratio: 1.05

## CTTCATAGTG
  switch fluorescence ratio: 0.957

## GGCTCATTAG
  switch fluorescence ratio: 0.968

## ACTGCGGGAG
  switch fluorescence ratio: 1.05

## GAGGGAGAAT
  switch fluorescence ratio: 0.97

## AGTAGCTTC
  switch fluorescence ratio: 1.03

## TTATAACTGA
  switch fluorescence ratio: 0.963

## ACATGGCTCA
  switch fluorescence ratio: 1.01

## AATGGAGTTG
  switch fluorescence ratio: 1.05

## AATAAAGCGG
  switch fluorescence ratio: 1.02

## TGGCAGATTG
  switch fluorescence ratio: 0.98

## AACAGATGCG
  switch fluorescence ratio: 0.964

## TAGTAAGACA
  switch fluorescence ratio: 1.03

## CATTGTGCA
  switch fluorescence ratio: 0.983

## GTATGAGCGG
  switch fluorescence ratio: 0.955

## TCCGGGATGC
  switch fluorescence ratio: 1.11
